In the supplement of paper PMC4967469:

Key:
Experiment in all cases: Viability of human cancer cell lines after 72 h of drug (GDSC screen)
[1] = compound: NC(=O)C1CCCc2c1[nH]c1ccc(Cl)cc21 [EX-527]; conditions: top dose 20 µM
Experimental: (§1)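 Human cancer cell lines in 384-well plates, medium with 10% serum, drug for 72 h over a 256-fold dose range (nine 2-fold or five 4-fold steps up to the top dose). Adherent lines were fixed and stained with the nucleic acid dye Syto60, suspension lines read with resazurin; signal relative to control wells, capped at 0 and 100%. One two-parameter sigmoid per drug and line, fitted in a mixed model over all curves with the slope shared within a line.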

[2] = compound: Nc1ccc(C(=O)Nc2cccc(-c3nc(N4CCOCC4)c4oc5ncccc5c4n3)c2)cn1 [YM201636]; conditions: top dose 5.12 µM; top dose inferred
Experimental: as §1

[3] = compound: N#CC(c1ccnc(NCCc2cccnc2)n1)c1nc2ccccc2s1 [AS601245]; conditions: top dose 8 µM; top dose inferred
Experimental: as §1

[4] = compound: Cn1cnc2c(F)c(Nc3ccc(Br)cc3Cl)c(C(=O)NOCCO)cc21 [AZD6244]; conditions: top dose 4 µM; screen: GDSC drug entry 1498; top dose inferred
Experimental: as §1

| Cell Line | AUC [1] | IC50 [1] [µM] | AUC [2] | IC50 [2] [µM] | AUC [3] | IC50 [3] [µM] | AUC [4] | IC50 [4] [µM] |
| --- | --- | --- | --- | --- | --- | --- | --- | --- |
| 451Lu (melanoma, adherent) | 0.986 | > 20 | 0.948 | > 5.12 | 0.831 | 4.76 | 0.355 | 0.101 |
| 639-V (bladder, adherent) | 0.984 | > 20 | 0.975 | > 5.12 | 0.797 | 3.14 | 0.982 | > 4 |
| 647-V (bladder, adherent) | 0.979 | > 20 | 0.964 | > 5.12 | 0.879 | > 8 | 0.888 | > 4 |
| 769-P (kidney, adherent) | 0.981 | > 20 | 0.855 | 4.69 | 0.809 | 4.64 | 0.868 | > 4 |
| 786-0 (kidney, adherent) | 0.98 | > 20 | 0.822 | 2.69 | 0.754 | 2.5 | 0.885 | 3.76 |
| 5637 (bladder, adherent) | 0.989 | > 20 | 0.91 | > 5.12 | 0.868 | 6.16 | 0.975 | > 4 |
| 8305C (thyroid, adherent) | 0.982 | > 20 | 0.93 | > 5.12 | 0.805 | 5.64 | 0.704 | 1.13 |
| 8505C (thyroid, adherent) | 0.956 | > 20 | 0.886 | > 5.12 | 0.725 | 2.28 | 0.767 | 1.57 |
| 23132-87 (stomach, adherent) | 0.986 | > 20 | 0.808 | 2.77 | 0.854 | 6.65 | 0.891 | > 4 |
| A172 (glioma, adherent) | 0.988 | > 20 | 0.922 | > 5.12 | 0.74 | 2.35 | 0.944 | > 4 |
| A204 (rhabdomyosarcoma, adherent) | 0.974 | > 20 | 0.839 | 5.11 | 0.785 | 4.53 | 0.949 | > 4 |
| A427 (non-small cell lung carcinoma, adherent) | 0.971 | > 20 | 0.931 | > 5.12 | 0.859 | 6.76 | 0.895 | > 4 |
| A431 (skin, adherent) | 0.977 | > 20 | 0.908 | > 5.12 | 0.812 | 4.07 | 0.971 | > 4 |
| A498 (kidney, adherent) | 0.976 | > 20 | 0.973 | > 5.12 | 0.969 | > 8 | 0.828 | > 4 |
| A673 (rhabdomyosarcoma, adherent) | 0.988 | > 20 | 0.957 | > 5.12 | 0.891 | 7.65 | 0.912 | > 4 |
| A2780 (ovary, semi-adherent) | 0.961 | > 20 | 0.819 | 3.05 | 0.86 | 7.12 | 0.983 | > 4 |
| ABC-1 (lung adenocarcinoma, adherent) | 0.969 | > 20 | 0.934 | > 5.12 | 0.833 | 6.7 | 0.973 | > 4 |
| ACHN (kidney, adherent) | 0.983 | > 20 | 0.883 | > 5.12 | 0.721 | 2.33 | 0.72 | 1.16 |
| AN3-CA (endometrium, adherent) | 0.972 | > 20 | 0.879 | > 5.12 | 0.711 | 2.1 | 0.879 | > 4 |
| ASH-3 (thyroid, adherent) | 0.98 | > 20 | 0.988 | > 5.12 | 0.605 | 0.97 | 0.603 | 0.479 |
| BCPAP (thyroid, adherent) | 0.985 | > 20 | 0.916 | > 5.12 | 0.803 | 3.54 | 0.776 | 1.45 |

| Cell Line | AUC [1] | IC50 [1] [µM] | AUC [2] | IC50 [2] [µM] | AUC [3] | IC50 [3] [µM] | AUC [4] | IC50 [4] [µM] |
| --- | --- | --- | --- | --- | --- | --- | --- | --- |
| BEN (non-small cell lung carcinoma, adherent) | 0.98 | > 20 | 0.931 | > 5.12 | 0.908 | > 8 | 0.97 | > 4 |
| BFTC-905 (bladder, adherent) | 0.977 | > 20 | 0.973 | > 5.12 | 0.787 | 2.97 | 0.825 | 1.97 |
| BFTC-909 (kidney, adherent) | 0.983 | > 20 | 0.949 | > 5.12 | 0.907 | > 8 | 0.916 | > 4 |
| BHT-101 (thyroid, adherent) | 0.976 | > 20 | 0.892 | > 5.12 | 0.839 | 5.71 | 0.455 | 0.188 |
| BHY (head and neck, adherent) | 0.987 | > 20 | 0.906 | > 5.12 | 0.824 | 4.79 | 0.889 | > 4 |
| BICR10 (head and neck, adherent) | 0.983 | > 20 | 0.981 | > 5.12 | 0.846 | 7.24 | 0.868 | > 4 |
| BICR22 (head and neck, adherent) | 0.983 | > 20 | 0.983 | > 5.12 | 0.966 | > 8 | 0.555 | 0.362 |
| BICR78 (head and neck, adherent) | 0.981 | > 20 | 0.969 | > 5.12 | 0.627 | 1.18 | 0.618 | 0.559 |
| BPH-1 (prostate, adherent) | 0.963 | > 20 | 0.897 | > 5.12 | 0.814 | 4.94 | 0.456 | 0.187 |
| BT-20 (breast, adherent) | 0.978 | > 20 | 0.929 | > 5.12 | 0.945 | > 8 | 0.947 | > 4 |
| BT-483 (breast, adherent) | 0.967 | > 20 | 0.876 | > 5.12 | 0.967 | > 8 | 0.962 | > 4 |
| BxPC-3 (pancreas, adherent) | 0.984 | > 20 | 0.899 | > 5.12 | 0.703 | 2.02 | 0.785 | 1.93 |
| C3A (liver, adherent) | 0.987 | > 20 | 0.988 | > 5.12 | 0.732 | 2.36 | 0.792 | 1.9 |
| C32 (melanoma, adherent) | 0.978 | > 20 | 0.987 | > 5.12 | 0.877 | > 8 | 0.308 | 0.0693 |
| C-4-I (cervix, adherent) | 0.97 | > 20 | 0.967 | > 5.12 | 0.85 | 6.84 | 0.909 | > 4 |
| C-33-A (cervix, adherent) | 0.971 | > 20 | 0.756 | 1.76 | 0.707 | 1.92 | 0.747 | 1.29 |
| CAKI-1 (kidney, adherent) | 0.965 | > 20 | 0.9 | > 5.12 | 0.806 | 6.85 | 0.682 | 1.04 |
| CAL-12T (non-small cell lung carcinoma, adherent) | 0.96 | > 20 | 0.867 | > 5.12 | 0.649 | 1.36 | 0.834 | 3.04 |
| CAL-27 (head and neck, adherent) | 0.98 | > 20 | 0.955 | > 5.12 | 0.813 | 4.44 | 0.672 | 0.762 |
| CAL-29 (bladder, adherent) | 0.978 | > 20 | 0.885 | > 5.12 | 0.946 | > 8 | 0.733 | 1.23 |
| CAL-33 (head and neck, adherent) | 0.978 | > 20 | 0.944 | > 5.12 | 0.91 | > 8 | 0.607 | 0.492 |

| Cell Line | AUC [1] | IC50 [1] [µM] | AUC [2] | IC50 [2] [µM] | AUC [3] | IC50 [3] [µM] | AUC [4] | IC50 [4] [µM] |
| --- | --- | --- | --- | --- | --- | --- | --- | --- |
| CAL-39 (cervix, adherent) | 0.974 | > 20 | 0.979 | > 5.12 | 0.849 | 6.39 | 0.539 | 0.321 |
| CAL-51 (breast, adherent) | 0.985 | > 20 | 0.991 | > 5.12 | 0.78 | 2.83 | 0.947 | > 4 |
| CAL-54 (kidney, adherent) | 0.985 | > 20 | 0.867 | > 5.12 | 0.912 | > 8 | 0.86 | > 4 |
| CAL-62 (thyroid, adherent) | 0.97 | > 20 | 0.955 | > 5.12 | 0.845 | 5.39 | 0.518 | 0.279 |
| CAL-72 (osteosarcoma, adherent) | 0.983 | > 20 | 0.983 | > 5.12 | 0.751 | 3.05 | 0.915 | > 4 |
| CAL-85-1 (breast, adherent) | 0.928 | > 20 | 0.895 | > 5.12 | 0.656 | 1.54 | 0.786 | 2.27 |
| CAL-120 (breast, adherent) | 0.981 | > 20 | 0.897 | > 5.12 | 0.93 | > 8 | 0.923 | > 4 |
| CAMA-1 (breast, adherent) | 0.961 | > 20 | 0.925 | > 5.12 | 0.928 | > 8 | 0.975 | > 4 |
| CCF-STTG1 (glioma, adherent) | 0.988 | > 20 | 0.988 | > 5.12 | 0.792 | 3.67 | 0.885 | > 4 |
| CCK-81 (large intestine, adherent) | 0.99 | > 20 | 0.871 | 4.33 | 0.886 | 7.91 | 0.989 | > 4 |
| CFPAC-1 (pancreas, adherent) | 0.984 | > 20 | 0.935 | > 5.12 | 0.845 | 7.04 | 0.801 | 2.3 |
| CHL-1 (melanoma, adherent) | 0.894 | > 20 | 0.768 | 1.82 | 0.862 | 6.22 | 0.807 | 1.91 |
| CHSA0011 (chondrosarcoma, adherent) | 0.98 | > 20 | 0.957 | > 5.12 | 0.927 | > 8 | 0.764 | 2.04 |
| CHSA0108 (chondrosarcoma, adherent) | 0.983 | > 20 | 0.971 | > 5.12 | 0.983 | > 8 | 0.852 | 3.87 |
| CHSA8926 (chondrosarcoma, adherent) | 0.98 | > 20 | 0.933 | > 5.12 | 0.979 | > 8 | 0.909 | > 4 |
| COLO-205 (large intestine, suspension) | 0.984 | > 20 | 0.954 | > 5.12 | 0.836 | 5.21 | 0.562 | 0.368 |
| COLO-678 (large intestine, semi-adherent) | 0.985 | > 20 | 0.967 | > 5.12 | 0.902 | > 8 | 0.752 | 1.68 |
| COLO-679 (melanoma, adherent) | 0.983 | > 20 | 0.95 | > 5.12 | 0.849 | 7.13 | 0.249 | 0.0428 |
| COLO-680N (oesophagus, adherent) | 0.986 | > 20 | 0.983 | > 5.12 | 0.891 | > 8 | 0.901 | > 4 |
| COLO-783 (melanoma, adherent) | 0.975 | > 20 | 0.991 | > 5.12 | 0.991 | > 8 | 0.693 | 0.847 |
| COLO-792 (melanoma, adherent) | 0.988 | > 20 | 0.984 | > 5.12 | 0.988 | > 8 | 0.592 | 0.445 |

IC50 is the fitted dose that halves viability relative to control wells, and lower means more sensitive; a fit beyond the top or the lowest dose is shown as a bound at that dose. AUC is the area under the same curve over the 256-fold range up to the top dose, as a fraction; values near 1 show little effect. For part of these data: A top dose marked as inferred comes from the curve model; the source does not state it. For part of these data: An entry number marks a drug with two screens in the source, which often give different values.
